Here are results for 63 variants from the RNAGym collection of RNA variant scans (doi:10.7554/elife.90254).

The source gives no read counts; variants with many changes may rest on few reads.

B1: LINE1-mini (parent)
chain: GGCAGAGCUCAACACAGCGUGGCAAAGUGGCUGUGGCUAGACUGCC

Variants of B1 are the subject of this series. The experiment in a line: self-cleavage, relative activity (ratio to wild type); higher = more cleavage; in vitro, sequencing; the parent is a self-cleaving ribozyme.
For G36C C37U A41G G44A, the self-cleavage came to 0.04.
Regarding G36C A39G U43C, the self-cleavage is 0.06.
Under A41U C42A C45A stands 0.08; under C42A G44A C45U, 0.07; under G40A A41C C45A, 0.
Turning to G44A C45A C46A, the self-cleavage was 0.63.
For the variant U43A G44A C45U, the self-cleavage was found to be 0.05.
As to U38C A41U G44A, the self-cleavage was 0.45.
In the case of G35U A41G C42U, the self-cleavage was determined as 0.07.
G35U G36C C46A: the self-cleavage worked out at 0.04.
For the variant A39G U43G C46U, the self-cleavage is 0.04.
Then C37U A39C C45A, with 0; and U38A A39C A41G, with 0.2.
On to G36C A39C C45U, for which the self-cleavage came to 0.02.
On to G35U C42A C45G, for which the self-cleavage came to 0.05.
On to G35U G40A G44A, for which the self-cleavage was 0.06.
Regarding G40U C42A U43A, the self-cleavage was found to be 0.03.
Turning to G35U G44A C46U, the self-cleavage was found to be 0.
Turning to U38C A39C G44A, the self-cleavage is 0.07.
Under G35C C37U G44U stands 0.05.
Consider G35C G36U A41U C42A, for which the self-cleavage was found to be 0.09.
For C37G G44C C45U, the self-cleavage is 0.02.
Under G36C A39C U43C stands 0.08.
With G40A A41G G44U, the self-cleavage was found to be 0.03.
Under G35U G44A C45U stands 0.02; under G36C U38G C45A C46A, 0; under G35U C37A G40A, 0.05.
With C37U U38C A39U G44C, the self-cleavage was found to be 0.03.
Under G35C G36C C46G stands 0.02; under C37A G40U A41C C42A, 0.12; under G35U C45A C46U, 0.05.
Under C37A C42G C45U stands 0.02; under U38G U43A C45U C46U, 0.05.
Turning to G36U C42G G44U, the self-cleavage turned out to be 0.03.
As for C37G G40A C46A, the self-cleavage was determined as 0.
In the case of A41U C42U C45A, the self-cleavage turned out to be 0.06.
As for G35U A39U G44A, the self-cleavage amounted to 0.07.
Then C42G G44A C46U, with 0.03; and A39G G44U C46A, with 0.03.
With C37G U38C G44A, the self-cleavage stood at 0.03.
As for G36U G40C U43C, the self-cleavage was found to be 0.17.
On to U38C G40A C45G, for which the self-cleavage is 0.04.
Then G36A A39C C45G, with 0.1; and G36A C42G U43C, with 0.02; and G35C C37U C42A, with 0.02.
Take A39U C42A C45A: the self-cleavage amounted to 0.04.
Consider C37U A39G C45U, for which the self-cleavage worked out at 0.03.
On to G36A G40U U43C, for which the self-cleavage was 0.28.
With G36U C37A C46G, the self-cleavage was determined as 0.58.
For the variant G35C U38C A41G, the self-cleavage came to 0.02.
In the case of C37A G44U C46G, the self-cleavage stood at 0.45.
Then A39G C42G C46U, with 0.1; and G40U A41C C42A, with 0.06; and G36A A39U C46U, with 0.14.
On to A41G G44C C46G, for which the self-cleavage stood at 0.01.
On to G35U G40C C45U, for which the self-cleavage came out at 0.02.
For the variant C37U A39G C46G, the self-cleavage amounted to 0.02.
For the variant A39C C42U C45U, the self-cleavage was 0.05.
As to G35U A39C G44U, the self-cleavage worked out at 0.01.
Turning to G36U A39U G44U, the self-cleavage came out at 0.03.
G36U G40U C46G: the self-cleavage was 0.44.
In the case of G36C C37A G40C, the self-cleavage came out at 0.21.
With G36U C37A U38A, the self-cleavage was determined as 0.
